{"source": "paper PMC4336329", "about": "(PLoS ONE, 2015)", "note": "In all, about 310,000 compounds went through this assay and about 14,000 (4.5%) showed an effect of 50% or more. The effect is printed as a negative number. Some of the results follow.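 Further: peak tail current of the secondary pulse compared with the same well before compound.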"}
{"biological_target": "human ether-à-go-go-related gene (hERG) potassium channel (human, UniProt Q12809)", "sequence (Q12809 whole entry, looked up)": "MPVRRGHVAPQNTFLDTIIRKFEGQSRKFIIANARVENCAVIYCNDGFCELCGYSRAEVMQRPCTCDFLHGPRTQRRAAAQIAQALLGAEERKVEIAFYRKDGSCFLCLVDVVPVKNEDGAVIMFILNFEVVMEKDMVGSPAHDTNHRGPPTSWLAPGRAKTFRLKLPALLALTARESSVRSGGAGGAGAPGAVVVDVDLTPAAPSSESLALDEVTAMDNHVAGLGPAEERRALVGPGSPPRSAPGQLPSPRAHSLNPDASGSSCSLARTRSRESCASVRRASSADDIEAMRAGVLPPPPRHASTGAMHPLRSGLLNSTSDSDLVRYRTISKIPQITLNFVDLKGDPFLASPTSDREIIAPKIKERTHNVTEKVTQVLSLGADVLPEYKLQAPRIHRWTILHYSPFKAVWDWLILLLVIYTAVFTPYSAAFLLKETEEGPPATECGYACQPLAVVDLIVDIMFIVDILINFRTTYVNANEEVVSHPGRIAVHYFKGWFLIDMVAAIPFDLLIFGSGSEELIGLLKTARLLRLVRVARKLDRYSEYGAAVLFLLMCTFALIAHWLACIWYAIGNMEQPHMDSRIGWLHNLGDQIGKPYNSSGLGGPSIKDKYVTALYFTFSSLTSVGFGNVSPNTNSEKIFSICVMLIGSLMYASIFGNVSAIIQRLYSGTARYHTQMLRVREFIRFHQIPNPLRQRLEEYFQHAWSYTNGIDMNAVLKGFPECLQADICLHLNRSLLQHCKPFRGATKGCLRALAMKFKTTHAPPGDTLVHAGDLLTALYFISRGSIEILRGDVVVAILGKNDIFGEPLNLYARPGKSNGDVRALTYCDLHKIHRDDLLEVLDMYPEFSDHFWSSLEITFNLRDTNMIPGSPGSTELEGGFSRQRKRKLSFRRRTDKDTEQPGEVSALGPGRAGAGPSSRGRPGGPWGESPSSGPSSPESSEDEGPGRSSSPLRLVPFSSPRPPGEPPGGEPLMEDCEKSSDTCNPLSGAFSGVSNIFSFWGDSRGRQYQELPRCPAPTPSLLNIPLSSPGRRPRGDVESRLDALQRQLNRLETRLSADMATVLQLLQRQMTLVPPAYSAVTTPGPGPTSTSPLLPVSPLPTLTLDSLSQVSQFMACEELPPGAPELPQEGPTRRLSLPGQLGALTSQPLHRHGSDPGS", "experiment": "primary screen, population patch clamp on CHO cells stably expressing hERG", "units": {"hERG current change (%, negative = inhibition) at 10uM": "%"}}
{"smiles": "COc1ccc2nc(Nc3ccccc3)sc2c1", "hERG current change (%, negative = inhibition) at 10uM": 18.8}
{"smiles": "CCN1C(=O)C(CC(=O)Nc2ccc(OC)cc2)N(Cc2cccs2)C1=S", "note": "(stereo not shown)", "hERG current change (%, negative = inhibition) at 10uM": -7.33}
{"smiles": "Fc1ccccc1-c1nc2c(s1)CCc1onc(-c3ccc(Br)cc3)c1-2", "hERG current change (%, negative = inhibition) at 10uM": 11.4}
{"smiles": "CCOc1ccc(C(=O)OCCN(C)C)cc1.Cl", "hERG current change (%, negative = inhibition) at 10uM": -10.3}
{"smiles": "O=C(Nc1cccc(Cl)c1)c1cccc(Oc2ccc([N+](=O)[O-])cc2Cl)c1", "hERG current change (%, negative = inhibition) at 10uM": 13.1}
{"smiles": "Cl.c1ccc2c(c1)oc1c(N3CCOCC3)ncnc12", "hERG current change (%, negative = inhibition) at 10uM": 9.53}
{"smiles": "Cc1c(C)n(Cc2ccccc2)c2ccc(C(=O)O)cc12", "hERG current change (%, negative = inhibition) at 10uM": 2.05}
{"smiles": "O=C(COc1ncnc2ccccc12)NCCc1ccccc1", "hERG current change (%, negative = inhibition) at 10uM": 10.2}
{"smiles": "COc1ccc(Cc2nnc(SCC(=O)Nc3ccc(C)cc3)n(N)c2=O)cc1", "hERG current change (%, negative = inhibition) at 10uM": 0.762}
{"smiles": "Cc1cc(=O)n2c(n1)NC(Nc1cccc(C)c1C)=NC2c1ccc(F)cc1", "note": "(stereo not shown)", "hERG current change (%, negative = inhibition) at 10uM": 7.5}
{"smiles": "O=C(C1CCCN1S(=O)(=O)c1cccc2cccnc12)N1CCN(c2ccccc2)CC1", "note": "(stereo not shown)", "hERG current change (%, negative = inhibition) at 10uM": -45}
{"smiles": "CCOc1cc(CNc2cccc3[nH]c(C)nc23)ccc1OC.Cl", "hERG current change (%, negative = inhibition) at 10uM": 18.6}
{"smiles": "CCN(CC)CCCNC(=O)Cn1nc(-c2ccccc2)ccc1=O", "hERG current change (%, negative = inhibition) at 10uM": -24.4}
{"smiles": "CC1C(=O)N(c2ccc(S(=O)(=O)N(C)C)cc2)C1(/C=C/c1ccccc1)C(=O)NC1CCCC1", "note": "(stereo not shown)", "hERG current change (%, negative = inhibition) at 10uM": 23.6}
{"smiles": "NC(=O)NCc1ccccc1F", "hERG current change (%, negative = inhibition) at 10uM": 10.9}
{"smiles": "CCc1cc(-c2n[nH]c(C)c2-c2nc3ccccc3n2C)c(O)c(CN2CCN(C)CC2)c1O", "hERG current change (%, negative = inhibition) at 10uM": -35.1}
{"smiles": "CC(C)C[C@H]1CNC(=O)C(=O)N1C[C@H](C)NC(=O)Cc1ccccc1", "hERG current change (%, negative = inhibition) at 10uM": 3.39}
{"smiles": "Fc1ccccc1NC(=S)N1CCN(Cc2ccccc2)CC1", "hERG current change (%, negative = inhibition) at 10uM": -2.71}
{"smiles": "COc1ccc(/C=N/NC(=O)CCn2c3ccccc3c3ccccc32)cc1OC", "hERG current change (%, negative = inhibition) at 10uM": 4.4}
{"smiles": "COC(=O)c1cc2ccccc2oc1=O", "hERG current change (%, negative = inhibition) at 10uM": 6.33}
{"smiles": "Cc1nnc(SCCCOc2ccccc2)nc1C", "hERG current change (%, negative = inhibition) at 10uM": -2.1}
{"smiles": "Cc1cc(O)c(C(C)C)cc1NC(=O)c1ccccc1Cl", "hERG current change (%, negative = inhibition) at 10uM": -6.98}
{"smiles": "COc1ccc(S(=O)(=O)N2CCCCCC2)cc1C(=O)N(C)Cc1ccc(C(C)(C)C)cc1", "hERG current change (%, negative = inhibition) at 10uM": -2.16}
{"smiles": "O=C(NCCCN1CCCC1)c1ccc(CS(=O)(=O)c2ccc(Cl)cc2)o1", "hERG current change (%, negative = inhibition) at 10uM": -6.15}
{"smiles": "COc1ccc(C)cc1S(=O)(=O)N1CCCCC1", "hERG current change (%, negative = inhibition) at 10uM": -0.147}
